# From the supplement of paper PMC8728848
# This is one part of the list.
# What was measured:
# Assay in all cases: glycan array binding signal (z-score within array); higher = stronger binding
# Details in all cases: glycan notation: IUPAC condensed, linker removed
# Fuc(a1-2)Gal = target: Fuc(a1-2)Gal
# Summary of the method: (§1)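 Glycan array data were curated from 3228 arrays in the Consortium for Functional Glycomics database and kept only where the protein sequence was available. Glycan names were converted to IUPAC-condensed notation, and columns mapping to the same glycan were averaged. The binding signal is a within-array Z-score, averaged across arrays of the same protein sequence at different concentrations or buffers and across linkers. Negative Z-scores can be read as non-binding.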
# Fuc(a1-2)Gal(b1-3)GalNAc = target: Fuc(a1-2)Gal(b1-3)GalNAc
# Summary of the method: as §1
# [1] = target: Fuc(a1-2)Gal(b1-3)GalNAc(a1-3)[Fuc(a1-2)]Gal(b1-4)Glc
# Summary of the method: as §1
# [2] = target: Fuc(a1-2)Gal(b1-3)GalNAc(a1-3)[Fuc(a1-2)]Gal(b1-4)GlcNAc
# Summary of the method: as §1
# [3] = target: Fuc(a1-2)Gal(b1-3)GalNAc(b1-3)Gal
# Summary of the method: as §1
# [4] = target: Fuc(a1-2)Gal(b1-3)GalNAc(b1-3)Gal(a1-4)Gal(b1-4)Glc
# Summary of the method: as §1
# [5] = target: Fuc(a1-2)Gal(b1-3)GalNAc(b1-4)[Neu5Ac(a2-3)]Gal(b1-4)Glc
# Summary of the method: as §1
# Fuc(a1-2)Gal(b1-3)GlcNAc = target: Fuc(a1-2)Gal(b1-3)GlcNAc
# Summary of the method: as §1
# [6] = target: Fuc(a1-2)Gal(b1-3)GlcNAc(b1-2)Man(a1-3)[Fuc(a1-2)Gal(b1-3)GlcNAc(b1-2)Man(a1-6)]Man(b1-4)GlcNAc(b1-4)GlcNAc
# Summary of the method: as §1
# [7] = target: Fuc(a1-2)Gal(b1-3)GlcNAc(b1-2)Man(a1-3)[Fuc(a1-2)Gal(b1-3)GlcNAc(b1-2)Man(a1-6)]Man(b1-4)GlcNAc(b1-4)[Fuc(a1-6)]GlcNAc
# Summary of the method: as §1
# [8] = target: Fuc(a1-2)Gal(b1-3)GlcNAc(b1-3)Gal(b1-4)Glc
# Summary of the method: as §1
# [9] = target: Fuc(a1-2)Gal(b1-3)GlcNAc(b1-3)GalNAc
# Summary of the method: as §1
# [10] = target: Fuc(a1-2)Gal(b1-3)GlcNAc(b1-3)[Fuc(a1-2)Gal(b1-3)GlcNAc(b1-6)]GalNAc
# Summary of the method: as §1
# [11] = target: Fuc(a1-2)Gal(b1-3)GlcNAc(b1-3)[Gal(b1-4)GlcNAc(b1-6)]Gal(b1-4)Glc
# Summary of the method: as §1
# [12] = target: Fuc(a1-2)Gal(b1-3)GlcNAc(b1-3)[Neu5Ac(a2-6)Gal(b1-4)GlcNAc(b1-6)]Gal(b1-4)Glc
# Summary of the method: as §1
# [13] = target: Fuc(a1-2)Gal(b1-3)GlcNAc6S
# Summary of the method: as §1
# [14] = target: Fuc(a1-2)Gal(b1-3)[Fuc(a1-4)]GlcNAc
# Summary of the method: as §1
# [15] = target: Fuc(a1-2)Gal(b1-3)[Fuc(a1-4)]GlcNAc(b1-2)Man(a1-3)[Fuc(a1-2)Gal(b1-3)[Fuc(a1-4)]GlcNAc(b1-2)Man(a1-3)]Man(b1-4)GlcNAc(b1-4)GlcNAc
# Summary of the method: as §1
# [16] = target: Fuc(a1-2)Gal(b1-3)[Fuc(a1-4)]GlcNAc(b1-2)Man(a1-3)[Fuc(a1-2)Gal(b1-3)[Fuc(a1-4)]GlcNAc(b1-2)Man(a1-6)]Man(b1-4)GlcNAc(b1-4)[Fuc(a1-6)]GlcNAc(b1-4)[Fuc(a1-6)]GlcNAc
# Summary of the method: as §1
# [17] = target: Fuc(a1-2)Gal(b1-3)[Fuc(a1-4)]GlcNAc(b1-3)[Fuc(a1-3)[Gal(b1-4)]GlcNAc(b1-6)]Gal(b1-4)Glc
# Summary of the method: as §1
# [18] = target: Fuc(a1-2)Gal(b1-3)[Fuc(a1-4)]GlcNAc(b1-3)[Gal(b1-4)GlcNAc(b1-6)]Gal(b1-4)Glc
# Summary of the method: as §1
# Fuc(a1-2)Gal(b1-4)Glc = target: Fuc(a1-2)Gal(b1-4)Glc
# Summary of the method: as §1
# Fuc(a1-2)Gal(b1-4)Glc6S = target: Fuc(a1-2)Gal(b1-4)Glc6S
# Summary of the method: as §1
# Fuc(a1-2)Gal(b1-4)GlcNAc = target: Fuc(a1-2)Gal(b1-4)GlcNAc
# Summary of the method: as §1
# [19] = target: Fuc(a1-2)Gal(b1-4)GlcNAc(b1-2)Man
# Summary of the method: as §1
# [20] = target: Fuc(a1-2)Gal(b1-4)GlcNAc(b1-2)Man(a1-3)[Fuc(a1-2)Gal(b1-4)GlcNAc(b1-2)Man(a1-6)]Man(b1-4)GlcNAc(b1-4)GlcNAc
# Summary of the method: as §1
# [21] = target: Fuc(a1-2)Gal(b1-4)GlcNAc(b1-2)Man(a1-3)[Fuc(a1-2)Gal(b1-4)GlcNAc(b1-2)Man(a1-6)]Man(b1-4)GlcNAc(b1-4)[Fuc(a1-6)]GlcNAc
# Summary of the method: as §1
# [22] = target: Fuc(a1-2)Gal(b1-4)GlcNAc(b1-2)[Fuc(a1-2)Gal(b1-4)GlcNAc(b1-4)]Man(a1-3)[Fuc(a1-2)Gal(b1-4)GlcNAc(b1-2)Man(a1-6)]Man(b1-4)GlcNAc(b1-4)GlcNAc
# Summary of the method: as §1
# [23] = target: Fuc(a1-2)Gal(b1-4)GlcNAc(b1-3)Gal(b1-4)GlcNAc
# Summary of the method: as §1
# [24] = target: Fuc(a1-2)Gal(b1-4)GlcNAc(b1-3)Gal(b1-4)GlcNAc(b1-2)Man(a1-3)[Fuc(a1-2)Gal(b1-4)GlcNAc(b1-3)Gal(b1-4)GlcNAc(b1-2)Man(a1-6)]Man(b1-4)GlcNAc(b1-4)GlcNAc
# Summary of the method: as §1
# [25] = target: Fuc(a1-2)Gal(b1-4)GlcNAc(b1-3)Gal(b1-4)GlcNAc(b1-3)Gal(b1-4)GlcNAc
# Summary of the method: as §1
# [26] = target: Fuc(a1-2)Gal(b1-4)GlcNAc(b1-3)GalNAc
# Summary of the method: as §1
# [27] = target: Fuc(a1-2)Gal(b1-4)GlcNAc(b1-3)[Fuc(a1-2)Gal(b1-4)GlcNAc(b1-6)]GalNAc
# Summary of the method: as §1
# [28] = target: Fuc(a1-2)Gal(b1-4)GlcNAc(b1-3)[Fuc(a1-3)[Gal(b1-4)]GlcNAc(b1-6)]Gal(b1-4)Glc
# Summary of the method: as §1
# [29] = target: Fuc(a1-2)Gal(b1-4)GlcNAc(b1-6)GalNAc
# Summary of the method: as §1
# [30] = target: Fuc(a1-2)Gal(b1-4)GlcNAc6S
# Summary of the method: as §1
# [31] = target: Fuc(a1-2)Gal(b1-4)[Fuc(a1-3)]GlcNAc
# Summary of the method: as §1
# [32] = target: Fuc(a1-2)Gal(b1-4)[Fuc(a1-3)]GlcNAc(b1-2)Man(a1-3)[Fuc(a1-2)Gal(b1-4)[Fuc(a1-3)]GlcNAc(b1-2)Man(a1-6)]Man(b1-4)GlcNAc(b1-4)[Fuc(a1-6)]GlcNAc
# Summary of the method: as §1
# [33] = target: Fuc(a1-2)Gal(b1-4)[Fuc(a1-3)]GlcNAc(b1-2)[Fuc(a1-2)Gal(b1-4)[Fuc(a1-3)]GlcNAc(b1-4)]Man(a1-3)[Fuc(a1-2)Gal(b1-4)[Fuc(a1-3)]GlcNAc(b1-2)Man(a1-6)]Man(b1-4)GlcNAc(b1-4)GlcNAc
# Summary of the method: as §1
# [34] = target: Fuc(a1-2)Gal(b1-4)[Fuc(a1-3)]GlcNAc(b1-3)Gal(b1-4)[Fuc(a1-3)]GlcNAc
# Summary of the method: as §1
# [35] = target: Fuc(a1-2)Gal(b1-4)[Fuc(a1-3)]GlcNAc(b1-3)Gal(b1-4)[Fuc(a1-3)]GlcNAc(b1-3)Gal(b1-4)[Fuc(a1-3)]GlcNAc
# Summary of the method: as §1
# [36] = target: Fuc(a1-2)Gal(b1-4)[Fuc(a1-3)]GlcNAc(b1-3)GalNAc
# Summary of the method: as §1
# [37] = target: Fuc(a1-2)Gal(b1-4)[Fuc(a1-3)]GlcNAc(b1-3)[Neu5Ac(a2-6)Gal(b1-4)GlcNAc(b1-6)]Gal(b1-4)Glc
# Summary of the method: as §1
# [38] = target: Fuc(a1-2)Gal3S(b1-4)GlcNAc
# Summary of the method: as §1
# [39] = target: Fuc(a1-2)Gal6S(b1-3)GlcNAc
# Summary of the method: as §1
binder,measurement,setting,value
GS7807P-bth-537-23-537 (Bacteroides thetaiotaomicron) (protein) NYENINSNPYEAPDLSADGYALGSAMNNLAGCVVSPDVNTAQFTDCLLGGPLGGYFADSNAGFTETISNFNPKDDWSRVFLKSDKIIPTLYSNLTQVKLVSQNTNDPVPYAIAQVIKVAAMHRVTDAFGPIPYSQIGANGEIATPYDSQEVTYNTFFDELNAAIATLNENSNEQLVPTADYIYKGDVKKWIRFANSLKLRLAIRIAYANPVKAQQMAEEAVNPANGGVIESNADNATWNYFETSQNPIYVATRYNQVQTSDHGGVPCLTGGDTHAAADIICYMNGYKDNRREKFFTKSEWAGQDYVGMRRGIVIPELKTTGHKYSGVNIAPTSPLYWMNAAEVAFLRAEGQAVFNFSMGGTAESFYNQGIRLSFEQWGADGVEDYLKDDVNKPTAYTDPAGTNTYQNALSNITIKWNDSADKEEKQERIIVQKWIANWQLGNEAWADFRRTGYPKLIPVKENKSGGVVDSEKGARRMPYPLDEFVSNKANVEYAIANYLHGADNMATDVWWASKK,glycan array binding signal (z-score),Fuc(a1-2)Gal,-0.386
same,glycan array binding signal (z-score),Fuc(a1-2)Gal(b1-3)GalNAc,-0.356
same,glycan array binding signal (z-score),[1],-0.349
same,glycan array binding signal (z-score),[2],-0.371
same,glycan array binding signal (z-score),[3],-0.348
same,glycan array binding signal (z-score),[4],-0.386
same,glycan array binding signal (z-score),[5],-0.067
same,glycan array binding signal (z-score),Fuc(a1-2)Gal(b1-3)GlcNAc,-0.307
same,glycan array binding signal (z-score),[6],-0.304
same,glycan array binding signal (z-score),[7],0.037
same,glycan array binding signal (z-score),[8],-0.288
same,glycan array binding signal (z-score),[9],-0.362
same,glycan array binding signal (z-score),[10],5.33
same,glycan array binding signal (z-score),[11],-0.1
same,glycan array binding signal (z-score),[12],-0.206
same,glycan array binding signal (z-score),[13],0.003
same,glycan array binding signal (z-score),[14],-0.374
same,glycan array binding signal (z-score),[15],0.553
same,glycan array binding signal (z-score),[16],-0.301
same,glycan array binding signal (z-score),[17],-0.343
same,glycan array binding signal (z-score),[18],-0.384
same,glycan array binding signal (z-score),Fuc(a1-2)Gal(b1-4)Glc,-0.376
same,glycan array binding signal (z-score),Fuc(a1-2)Gal(b1-4)Glc6S,-0.325
same,glycan array binding signal (z-score),Fuc(a1-2)Gal(b1-4)GlcNAc,-0.37
same,glycan array binding signal (z-score),[19],-0.28
same,glycan array binding signal (z-score),[20],1.65
same,glycan array binding signal (z-score),[21],-0.32
same,glycan array binding signal (z-score),[22],-0.271
same,glycan array binding signal (z-score),[23],-0.404
same,glycan array binding signal (z-score),[24],-0.235
same,glycan array binding signal (z-score),[25],-0.346
same,glycan array binding signal (z-score),[26],-0.284
same,glycan array binding signal (z-score),[27],-0.005
same,glycan array binding signal (z-score),[28],-0.146
same,glycan array binding signal (z-score),[29],-0.35
same,glycan array binding signal (z-score),[30],-0.342
same,glycan array binding signal (z-score),[31],-0.36
same,glycan array binding signal (z-score),[32],-0.337
same,glycan array binding signal (z-score),[33],-0.094
same,glycan array binding signal (z-score),[34],-0.386
same,glycan array binding signal (z-score),[35],0.061
same,glycan array binding signal (z-score),[36],-0.115
same,glycan array binding signal (z-score),[37],-0.322
same,glycan array binding signal (z-score),[38],-0.396
same,glycan array binding signal (z-score),[39],-0.359
